Consider 42 compounds from ChEMBL document CHEMBL4888484, “Replenishing the malaria drug discovery pipeline: Screening and hit evaluation of the MMV Hit Generation Library 1 (HGL1) against asexual blood stage Plasmodium falciparum ,using a nano luciferase reporter read-out” (2022).

Structures are written as SMILES. Among all 150,000 compounds or so, about 540 (0.36%) showed an effect of 50% or more. This is one part of the list.

The assay relates to Plasmodium falciparum. The assay can be described thus: Primary screen in NF54 nanoGlo assay, in single point, at 2uM, 72h; a lower Z score goes with more inhibition. Type of assay: functional, Erythrocyte. The conditions noted are these: timepoint 72 hour.
For `Cc1cnn(CCN[C@@H](C)C(=O)N2CCCC2)c1`, the “% Inhibition” value was -4% and the Z score stood at 0.55.
Turning to `CC(C)(CO)CNC(=O)COc1ccccc1Br`, the “% Inhibition” value is reported as 40% and the Z score is -3.37.
Take `Cc1cc(C)cc(N2CC[C@H](NC(=O)NCc3ccco3)C2=O)c1`: the “% Inhibition” value is -9% and the Z score was found to be 1.42.
For `CCCc1cc(C(=O)NCCN2CC[C@H](c3ccccc3C)C2)[nH]n1`, the “% Inhibition” value is -7% and the Z score came out at 1.21.
In the case of `Cc1cc(NC(=O)c2cnns2)ccc1Oc1ccncc1`, the “% Inhibition” value is -7% and the Z score was 1.35.
For `CC#CC(=O)N[C@@H](C)c1cc2cc(F)ccc2o1` the same measures were -8% and 0.84.
Take `CC(C)CC(=O)Nc1c(C2CC2)n[nH]c1-c1cccc(Cl)c1`: the “% Inhibition” value is reported as -2% and the Z score worked out at 0.17.
For `CCn1cnc2cc(-c3noc(-c4ccccc4)n3)ccc21`, the “% Inhibition” value is -13% and the Z score came to 1.67.
For the compound `COCCN1C[C@@H](Cc2cccc(-n3cnnc3)c2)CC1=O`, the “% Inhibition” value is -6% and the Z score is given as 0.86.
As for `Cc1noc(C)c1C(=O)N1CC(F)(F)C[C@H]1c1nc(C2CC2)no1`, the “% Inhibition” value was -11% and the Z score was determined as 1.97.
On the same counts, the results for `O=C(NCCCCn1ccnc1)c1c[nH]nc1-c1c(F)cccc1F` are 1% and -0.09.
In the case of `CC(C)n1[nH]c(=O)c2c1NC(=O)C[C@H]2C1CCCCC1`, the “% Inhibition” value is 35% and the Z score was -0.88.
On the same counts, the results for `Cc1c(CNCc2cnc(-c3ccco3)s2)cnn1C` are -5% and 0.53.
For `CNC(=O)c1cccc(C(=O)O[C@@H](C)c2cccnc2)c1` the same measures were -5% and 0.48.
Regarding `Cn1ccnc1-c1cncc(Br)c1`, the “% Inhibition” value was -1% and the Z score turned out to be 0.24.
Regarding `COc1ccc2c(c1)OC[C@]1(CO)CN(Cc3ccc(Cl)c(F)c3)C[C@H]21`, the “% Inhibition” value is on record as -15% and the Z score stood at 1.43.
For `Cc1cc(S(C)(=O)=O)cc(C(=O)N[C@H]2CCO[C@@H]2c2cc[nH]n2)c1C` the same measures were -15% and 2.05.
For the compound `O=C(c1cnccn1)N1CC=C(c2ccccc2)CC1`, the “% Inhibition” value was -5% and the Z score was found to be 0.68.
For the compound `CC(=O)N1CCC[C@H](Nc2nc(N)nc3[nH]cnc23)C1`, the “% Inhibition” value worked out at 0% and the Z score came out at 0.04.
As for `CC(C)[C@H](NC(=O)c1ccc(Cl)c(F)c1)c1ncnn1C`, the “% Inhibition” value is -4% and the Z score is on record as 0.76.
Regarding `COc1cc2c(cc1OC)[C@H](c1ccccc1)N(CC(=O)N1CCOCC1)CC2`, the “% Inhibition” value is -7% and the Z score is 0.8.
As to `CC1=C(C(=O)NCCn2ncnn2)CCC1`, the “% Inhibition” value amounted to 7% and the Z score was -1.21.
For `CN(Cc1cscn1)Cc1ncc[nH]1` the same measures were -19% and 2.66.
For the compound `COc1ccccc1CNC(=O)c1c(OC)cc(=O)n2c1CCN(Cc1cccc(F)c1)CC2`, the “% Inhibition” value is listed as -11% and the Z score is recorded as 1.65.
`CC(C)N(CC1CC2C=CC1C2)C(=O)CCNC(N)=O` (centres undefined): the “% Inhibition” value is given as -7% and the Z score stood at 0.86.
Regarding `Cc1c(NC(=O)CC2(C(F)(F)F)OCCO2)c(=O)n(-c2ccccc2)n1C`, the “% Inhibition” value is reported as 4% and the Z score is -0.53.
Take `CCN1CCN(c2cc(C)nc3nc(CN(CC)Cc4ccccc4)nn23)CC1`: the “% Inhibition” value stood at 7% and the Z score was -0.87.
As for `Cn1c(Cn2cncn2)nnc1C1CCN(c2ncnc3[nH]cnc23)CC1`, the “% Inhibition” value is -15% and the Z score is on record as 1.45.
Take `c1ccc(C2(CNc3ncnc4[nH]ncc34)CCC2)nc1`: the “% Inhibition” value is -6% and the Z score turned out to be 1.2.
For `CN(CCCn1ccnc1)C(=O)NC1CCCC1c1ccc(F)cc1` (centres undefined), the “% Inhibition” value is -6% and the Z score is listed as 0.76.
Take `O=C1CCc2c(OCc3noc(C4CCCCC4)n3)cccc21`: the “% Inhibition” value came to 9% and the Z score was -1.12.
In the case of `O=C(Cn1nccn1)N1CCN(Cc2ccc3c(c2)OCO3)CC1`, the “% Inhibition” value came to 2% and the Z score is recorded as -0.28.
For the compound `C=CCCC(=O)Nc1ccc(C(C)=O)c(Cl)c1`, the “% Inhibition” value is listed as 12% and the Z score was -1.94.
Take `Cc1cc(C)c2[nH]c(C)c(CC(=O)NCCNc3ncccc3C)c2c1`: the “% Inhibition” value is -14% and the Z score is listed as 1.98.
Turning to `Cc1ccc(-c2nc3c4ccccc4ccn3c2CN2CCCCC2)cc1`, the “% Inhibition” value is reported as 0% and the Z score is -0.01.
For `O=C(CCCc1ccc(F)c(F)c1)N[C@H]1CC12CCOCC2`, the “% Inhibition” value is 6% and the Z score was -1.16.
Regarding `Cc1nc(NCc2nc(-c3cnccn3)n[nH]2)c2cccnc2n1`, the “% Inhibition” value is -15% and the Z score was found to be 1.96.
In the case of `O=C(c1nccc2ccccc12)N1CCOc2ccc(N3CCCC3)cc2C1`, the “% Inhibition” value was found to be 6% and the Z score is -1.14.
Take `CN([C@H]1CCc2nn(CC3CC3)c(=O)n2CC1)S(=O)(=O)c1ccc2c(c1)CCC2`: the “% Inhibition” value is -13% and the Z score came to 2.04.
On to `CCN1C(=O)Cc2cc(NS(=O)(=O)c3ccc4c(c3)OCCO4)ccc21`, for which the “% Inhibition” value is reported as -15% and the Z score came to 1.74.
For `COC(=O)[C@H](NCc1nnc(C)o1)c1ccc(Cl)cc1Cl`, the “% Inhibition” value was -13% and the Z score is given as 1.69.
On to `COc1ccc(Cl)cc1C(=O)Nc1ccc2nc3n(c(=O)c2c1)CCCC3`, for which the “% Inhibition” value is reported as 0% and the Z score is 0.05.
